According to PubChem BioAssay AID463173 (ICCB-Longwood Screening Facility, Harvard Medical School, 2010):
The campaign covered roughly 52,000 compounds. About 4,300 (8.3%) were called active. Rule as the data show it: active = survival mostly below about 52% (no sharp cut-off); inactive = mostly above about 56%. The list shows a part of the results.

These molecules were tested on DeltatarO mutant (assay: S. aureus survival, RN4220 and DeltatarO strains – OD600, teichoic acid synthesis inhibitors, primary screen (AID 463173)). Conditions: S. aureus RN4220 wild type/DeltatarO growth, OD600, 18 h, active compounds read low, screened at 18.75 µg/mL (by protocol).

| SMILES | survival |
| --- | --- |
| CCOC(=O)c1c(N)n(-c2ccc(CC)cc2)c2nc3ccccc3nc12 | inactive: 98% |
| O=C(CCSCCc1ccccn1)Nc1ccc(Cl)cc1 | active: 47% |
| O=C(Nc1ccc(Br)cc1)c1cc(S(=O)(=O)NC2CCCC2)ccc1F | inactive: 81% |
| CCN(c1ccccc1)S(=O)(=O)c1nnc(NC(=O)C2CCCCC2)s1 | active: 48% |
| COc1ccc2c(c1)c(N1CCCC1=O)c(C(=O)Nc1cc(C)c(Cl)cc1OC)n2C | inactive: 87% |
| CCn1c(=O)c2sccc2n2c(CCC(=O)Nc3ccc(F)cc3)nnc12 | inactive: 82% |
| CCc1ccc2[nH]c(=O)c(CN(Cc3ccco3)C(=S)NCC(C)C)cc2c1 | inactive: 56% |
| Cc1ccc2c(c1)cc1c(=O)n(Cc3ccccc3Cl)nc(C)n12 | inactive: 96% |
| O=C(COCC(=O)N1CCCC1)N1CCCC1 | inactive: 75% |
| CCOC(=O)c1ccccc1NC(=O)N1CCC(CN2CCOCC2)CC1 | inactive: 62% |
| CCOc1ccc(NC(=O)Cn2nc3c(cc2=O)CC(C)CC3)cc1 (stereo unspecified) | inactive: 98% |
| CCOC(=O)c1[nH]c2c(c1Cc1ccccc1)C(=O)CC(c1ccccc1)C2 (stereo unspecified) | inactive: 64% |
| CCN1CCN(C(c2ccccc2Cl)c2sc3nc(-c4ccco4)nn3c2O)CC1 (stereo unspecified) | inactive: 92% |
| Cc1ccc(-c2noc(-c3nnn(CC(=O)Nc4ccc(C)c(Cl)c4)c3N)n2)cc1 | inactive: 89% |
| CC(C)Oc1ccc(C(=O)NCC(c2ccc(N(C)C)cc2)N2CCc3ccccc32)cc1 (stereo unspecified) | inactive: 91% |
| CCNC(=O)CC1C(=O)N(c2ccc(C)cc2)C(=O)N1CCOC (stereo unspecified) | inactive: 81% |
| COC(=O)C1=NN(C(=O)c2cccc(OC)c2)C(C)(O)C1 (stereo unspecified) | inactive: 104% |
| O=C(CSc1nnc(-c2ccccc2)o1)c1ccc2c(c1)OCCO2 | inactive: 83% |
| COc1ccc(CNC(=O)CN2C(=O)CCn3nc(-c4cn(C)c5ccccc45)cc32)cc1 | inactive: 96% |
| COc1ccc(-c2onc(C)c2C)cc1S(=O)(=O)NCCc1ccccc1 | inactive: 90% |
| Oc1c(C(c2ccccc2)N2CCCC2)sc2nc(-c3ccco3)nn12 (stereo unspecified) | active: 0% |
| CCOC(=O)Cc1ccc(NC(=O)NC(C)c2c(-n3cccc3)sc(C)c2C)cc1 (stereo unspecified) | inactive: 61% |
| COc1cc(-n2c(=O)c3ccccc3n(Cc3cccc(Cl)c3)c2=O)cc(OC)c1OC | inactive: 87% |
| CCOC(=O)c1c(C)[nH]c(CCC(=O)NCc2cc(OC)c(OC)c(OC)c2)c1C | inactive: 88% |
| COc1ccc(CCN2C(=O)N(c3cccc(OC)c3)C(=O)C2CC(=O)Nc2ccccc2)cc1 (stereo unspecified) | inactive: 101% |
| Cc1cc2oc(=O)c(CC(=O)O)c(C)c2c2occ(-c3ccccc3)c12 | inactive: 53% |
